Some of the results follow. The list includes weakly bound sequences.

This assay concerns the target T1, MBP-FoxP3dN (UniProt Q99JB6).
T1 sequence: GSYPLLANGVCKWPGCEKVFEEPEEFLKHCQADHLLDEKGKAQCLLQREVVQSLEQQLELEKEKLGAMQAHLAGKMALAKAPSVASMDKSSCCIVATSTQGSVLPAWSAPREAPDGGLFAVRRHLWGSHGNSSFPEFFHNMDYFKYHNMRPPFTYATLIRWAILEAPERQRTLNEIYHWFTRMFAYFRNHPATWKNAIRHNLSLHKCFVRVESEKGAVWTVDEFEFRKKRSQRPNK
Put plainly: PD-seq (MBP pull-down with sequencing). As to conditions: 20 mM Tris-HCl pH 7.5, 100 mM NaCl, 1.5 mM MgCl2, 0.4 uM protein, 0.1 uM dsDNA library, 30 min, room temperature, amylose pull-down; high values mean tight binding; double strand, one strand shown.
Consider “GATGATTGTTCTCCCAGCTGATGAATTGCGGTGTTCGAGTAAACAAATTTTCCTAATCTTTCTGTTCAAGCGCCATCTAC”, for which the binding signal (RPM ratio (pull-down/input)) came out at 1.42.
With “GATGATTGTTCTCCCAGCTGATGAATTTGGTTATTCGAGTAAACAAATTTTCCTAATCTTTCTGTTCAAGCGCCATCTAC” the figure was 3.56; with “GATGATTGTTCTCCCAGCTGATGAATTTATAAGCTCGAGTAAACAAATTTTCCTAATCTTTCTGTTCAAGCGCCATCTAC”, 0.585.
With “GATGATTGTTCTCCCAGCTGATGAATTACCAGACTCGAGTAAACAAATTTTCCTAATCTTTCTGTTCAAGCGCCATCTAC” the figure was 0.211.
As for “GATGATTGTTCTCCCAGCTGATGAATTATCCTTATCGAGTAAACAAATTTTCCTAATCTTTCTGTTCAAGCGCCATCTAC”, the figure is 0.317; as for “GATGATTGTTCTCCCAGCTGATGAATTTGCGCCGTCGAGTAAACAAATTTTCCTAATCTTTCTGTTCAAGCGCCATCTAC”, 0.938; as for “GATGATTGTTCTCCCAGCTGATGAATTGCCTAGATCGAGTAAACAAATTTTCCTAATCTTTCTGTTCAAGCGCCATCTAC”, 0.369.
Regarding “GATGATTGTTCTCCCAGCTGATGAATTGACGCCCTCGAGTAAACAAATTTTCCTAATCTTTCTGTTCAAGCGCCATCTAC”, the binding signal (RPM ratio (pull-down/input)) is 0.785.
Take “GATGATTGTTCTCCCAGCTGATGAATTTAGAGGGTCGAGTAAACAAATTTTCCTAATCTTTCTGTTCAAGCGCCATCTAC”: the binding signal (RPM ratio (pull-down/input)) was 0.435.
As for “GATGATTGTTCTCCCAGCTGATGAATTTAACCAATCGAGTAAACAAATTTTCCTAATCTTTCTGTTCAAGCGCCATCTAC”, the figure is 0.302; as for “GATGATTGTTCTCCCAGCTGATGAATTCCCTAGTTCGAGTAAACAAATTTTCCTAATCTTTCTGTTCAAGCGCCATCTAC”, 0.228.
As for “GATGATTGTTCTCCCAGCTGATGAATTGGTAGAGTCGAGTAAACAAATTTTCCTAATCTTTCTGTTCAAGCGCCATCTAC”, the figure is 0.325.
With “GATGATTGTTCTCCCAGCTGATGAATTAAGCCATTCGAGTAAACAAATTTTCCTAATCTTTCTGTTCAAGCGCCATCTAC” the figure was 4.08.
Consider “GATGATTGTTCTCCCAGCTGATGAATTACAGTGATCGAGTAAACAAATTTTCCTAATCTTTCTGTTCAAGCGCCATCTAC”, for which the binding signal (RPM ratio (pull-down/input)) stood at 0.552.
With “GATGATTGTTCTCCCAGCTGATGAATTGACGCCTTCGAGTAAACAAATTTTCCTAATCTTTCTGTTCAAGCGCCATCTAC” the figure was 2.27; with “GATGATTGTTCTCCCAGCTGATGAATTATAGTAATCGAGTAAACAAATTTTCCTAATCTTTCTGTTCAAGCGCCATCTAC”, 0.658.
For “GATGATTGTTCTCCCAGCTGATGAATTTGGAAAGTCGAGTAAACAAATTTTCCTAATCTTTCTGTTCAAGCGCCATCTAC”, the binding signal (RPM ratio (pull-down/input)) was found to be 0.21.
As for “GATGATTGTTCTCCCAGCTGATGAATTGGCAAAGTCGAGTAAACAAATTTTCCTAATCTTTCTGTTCAAGCGCCATCTAC”, the figure is 0.247; as for “GATGATTGTTCTCCCAGCTGATGAATTTGCGATCTCGAGTAAACAAATTTTCCTAATCTTTCTGTTCAAGCGCCATCTAC”, 1.23; as for “GATGATTGTTCTCCCAGCTGATGAATTCCGCATTTCGAGTAAACAAATTTTCCTAATCTTTCTGTTCAAGCGCCATCTAC”, 6.33.
As to “GATGATTGTTCTCCCAGCTGATGAATTATGGCACTCGAGTAAACAAATTTTCCTAATCTTTCTGTTCAAGCGCCATCTAC”, the binding signal (RPM ratio (pull-down/input)) was determined as 0.958.
With “GATGATTGTTCTCCCAGCTGATGAATTGCAACCGTCGAGTAAACAAATTTTCCTAATCTTTCTGTTCAAGCGCCATCTAC” the figure was 1.97.
With “GATGATTGTTCTCCCAGCTGATGAATTGCGACCTTCGAGTAAACAAATTTTCCTAATCTTTCTGTTCAAGCGCCATCTAC” the figure was 0.908; with “GATGATTGTTCTCCCAGCTGATGAATTATCTTTGTCGAGTAAACAAATTTTCCTAATCTTTCTGTTCAAGCGCCATCTAC”, 0.849; with “GATGATTGTTCTCCCAGCTGATGAATTGCAGGAATCGAGTAAACAAATTTTCCTAATCTTTCTGTTCAAGCGCCATCTAC”, 0.431.
For “GATGATTGTTCTCCCAGCTGATGAATTATGTGCCTCGAGTAAACAAATTTTCCTAATCTTTCTGTTCAAGCGCCATCTAC”, the binding signal (RPM ratio (pull-down/input)) came out at 1.56.
Turning to “GATGATTGTTCTCCCAGCTGATGAATTACGTCCCTCGAGTAAACAAATTTTCCTAATCTTTCTGTTCAAGCGCCATCTAC”, the binding signal (RPM ratio (pull-down/input)) turned out to be 0.691.
For the sequence “GATGATTGTTCTCCCAGCTGATGAATTGAAATCTTCGAGTAAACAAATTTTCCTAATCTTTCTGTTCAAGCGCCATCTAC”, the binding signal (RPM ratio (pull-down/input)) came out at 0.246.
Turning to “GATGATTGTTCTCCCAGCTGATGAATTTTACGAATCGAGTAAACAAATTTTCCTAATCTTTCTGTTCAAGCGCCATCTAC”, the binding signal (RPM ratio (pull-down/input)) was found to be 0.25.
As for “GATGATTGTTCTCCCAGCTGATGAATTGAGCGGATCGAGTAAACAAATTTTCCTAATCTTTCTGTTCAAGCGCCATCTAC”, the figure is 0.265; as for “GATGATTGTTCTCCCAGCTGATGAATTAAACAAATCGAGTAAACAAATTTTCCTAATCTTTCTGTTCAAGCGCCATCTAC”, 0.847; as for “GATGATTGTTCTCCCAGCTGATGAATTTGTTGTGTCGAGTAAACAAATTTTCCTAATCTTTCTGTTCAAGCGCCATCTAC”, 8.35.

For the origin of these results see paper PMC12820563.
